Reference: PubChem BioAssay AID686970 (National Center for Advancing Translational Sciences (NCATS), 2013)
In all, about 360,000 compounds went through this assay and about 6,000 (1.7%) were called active. The inconclusive results got no clear call from the source; some entries with a clear call stand among them for comparison. The call rests on the fitted dose curve; in most records, active means well fitted cell-killing curve with a large enough effect; inconclusive means small, poorly fitted or top-dose-only effect, or effect the other way; inactive means flat fitted curve, though single readings scatter. Potencies of inconclusive entries are left out as doubtful fits.
Potency means the concentration at half of the fitted maximal effect; tags describe the fitted curve by direction and shape.

Assay: qHTS for induction of synthetic lethality in tumor cells producing 2HG: qHTS for the HT-1080-NT fibrosarcoma cell line;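 further: NT is the 2HG producing partner of a matched IDH1 knockdown line; nearly all actives have a fitted effect of over 55% in size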;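 on activity, negative = less viability: 0% = DMSO-treated cells and -100% = media-only wells without cells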
Conditions: HT-1080-NT fibrosarcoma viability, CellTiter-Glo ATP luminescence, 48 h; activity, negative = less viability: at 46.1 µM (top of the series) unless noted
In short: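 HT-1080-NT; 750 cells/well; 5% FBS RPMI; 48 h compound, 37 degrees C; CellTiter-Glo luminescence; curve fitting and curve-class assignment.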
For COc1ccccc1CNc1nc(NCc2ccc(NC(C)=O)cc2)c2sccc2n1, the Potency was inconclusive [cytotoxic, single point]. In the case of N#Cc1ccc(/C=N/NC(=O)c2cc(-c3cccs3)nc3ccccc23)cc1, the Potency is reported as inconclusive [cytotoxic, partial curve]. For C=CCn1c(C)cc(-c2csc(NCC)n2)c1C, the Potency was inconclusive [cytotoxic, single point]. For O=C1c2cccc3cccc(c23)C(=O)N1CC1CCN(S(=O)(=O)c2ccc(F)cc2)CC1, the activity, negative = less viability was inconclusive: 37.8%. For CCOC(=O)CNC(=O)N1CCc2ccc(NC(=O)c3ccccc3Cl)cc2C1, the Potency was “inactive”. With CC(C)(CC(=O)N1CCN(c2ccc(Cl)cc2)CC1)CC1=NS(=O)(=O)c2ccccc2N1 the Potency was inconclusive [cytotoxic, single point]. In the case of O=C(CC1Nc2ccccc2NC1=O)Nc1ccc2c(c1)OCO2 (centres undefined), the Potency is reported as inconclusive [cytotoxic, single point]. With CC(CCc1ccc(O)cc1)NCc1ccc(Cl)cc1Cl (centres undefined) the Potency was inconclusive [cytotoxic, partial curve]. With O=C(Cn1cc(C(=O)C(F)(F)F)c2ccccc21)Nc1ccccc1F the Potency was “inactive”. With Cc1ccc(-c2nn3nnnc3c3ccccc23)cc1 the Potency was inconclusive [cytotoxic, single point]. With COc1ccc(-n2ncc(C(C)NS(=O)(=O)c3cc(C)sc3C)c2C)cc1 (centres undefined) the Potency was “inactive”. In the case of Cc1cc(NS(=O)(=O)c2ccc(NC(=O)CCSc3ccc(F)cc3)cc2)nc(C)n1, the Potency is reported as inconclusive [rising, single point]. For Cc1ccc(CNc2ccc3c(c2)OCO3)cc1, the Potency was inconclusive [cytotoxic, single point]. For NC1CCN(c2nc3c(cc2F)c(=O)c(C(=O)O)cn3-c2ccc(F)cc2F)C1 (centres undefined), the Potency was inconclusive [cytotoxic, partial curve, poor fit]. In the case of O=C1NC[C@H](Cc2ccccc2)N(C[C@@H]2CCCN2C[C@H](Cc2ccc(O)cc2)N2C[C@H](Cc3ccccc3)N(CCc3ccccc3)C(=O)C2=O)C1=O, the Potency is reported as inconclusive [cytotoxic, single point]. For Oc1[nH]c2ccccc2c1N=Nc1c(F)c(F)c(C(F)(F)F)c(F)c1F, the Potency was inconclusive [rising, single point]. With O=[N+]([O-])c1ccc(CSc2ccc(S(=O)(=O)N3CCCCCC3)cn2)cc1 the Potency was “inactive”. With Cc1ccc(-c2csc3ncnc(-n4cnc5ccccc54)c23)cc1 the Potency was active: 16.4 µM. For Cc1ccc(N=Nc2c(O)[nH]c(=O)[nH]c2=O)cc1S(=O)(=O)Nc1ccc(Br)cc1, the activity, negative = less viability was inconclusive: -8.13% [cytotoxic]. In the case of Cc1ccc(-c2csc3ncnc(N4CCN(C(=O)c5ccco5)CC4)c23)cc1, the Potency is reported as inconclusive [cytotoxic, single point]. With CSc1ccc(/C=C/C(=O)c2ccc(NC(C)=O)cc2)cc1 the Potency was “inactive”. With COc1ccc(OC)c(Nc2nc(-c3cccs3)cs2)c1 the Potency was inconclusive [cytotoxic, single point]. With CCN(CC)S(=O)(=O)c1ccc(C)c(NC(=O)COc2ccc(Cl)cc2Br)c1 the Potency was inconclusive [cytotoxic, single point]. For Cc1ccc(NS(=O)(=O)c2ccc(NC(=O)c3ccccc3C(=O)O)cc2)c(C)c1, the Potency was inconclusive [rising, single point]. In the case of O=c1[nH]c(=O)n(-c2ccc(F)cc2)c2c1C(C(F)(F)F)(C(F)(F)F)N=C(c1ccc(F)cc1)N2, the Potency is reported as active: 14.6 µM. With CN1CCN(c2nc(-c3ccc(Cl)cc3)cc(=O)[nH]2)CC1 the Potency was inconclusive [cytotoxic, single point]. For Cc1cccc(-n2cc(-c3ccccc3)c3c(N4CCOCC4)ncnc32)c1, the Potency was active: 20.6 µM. For Nc1ncnc2c1ccn2[C@H]1CN(Cc2ccc3c(c2)OCO3)C[C@@H](COC(=O)c2ccccc2)O1, the Potency was inconclusive [rising, full curve]. With CC(=O)Nc1ccc(-c2ccnc3c2CC(C(=O)NCc2ccccc2)O3)cc1 (centres undefined) the Potency was inconclusive [cytotoxic, full curve]. For CCNC(=S)Nc1cccc(F)c1C, the Potency was “inactive”. For COC(=O)c1ccccc1NC(=O)c1noc2c1CCCC2, the Potency was inconclusive [cytotoxic, single point]. With O=C(Nc1ccc(OC(=O)c2ccco2)cc1)c1ccco1 the Potency was “inactive”. In the case of Cc1cc(N2CCCN(C)CC2)nc2cc(Cl)ccc12, the Potency is reported as inconclusive [cytotoxic, single point]. With CCOC(=O)/C(=N/O)C1=NC(C)(C)Cc2cc(C)c(C)cc21 the Potency was “inactive”. With O=C(Nc1nc(=O)c2ccccc2s1)c1ccc(F)cc1 the Potency was active: 15.8 µM. With COc1ccc(O)c(/C=c2/sc3nc4cc(C)c(C)cc4n3c2=O)c1 the Potency was inconclusive [cytotoxic, single point]. For Cc1ccc(S(=O)(=O)NC2(C(=O)O)CCCCC2)cc1, the activity, negative = less viability was inconclusive: 6.71%. For O=C(Nc1ccc(-n2nncc2-c2ccco2)cc1)c1cccc(F)c1, the Potency was inconclusive [cytotoxic, single point]. In the case of Oc1ccccc1-c1nc(NCCN2CCOCC2)c2ccccc2n1, the Potency is reported as active: 20.6 µM. For CCCC1(c2ccccc2)NC(=O)N(CC(=O)Nc2sc(-c3ccccc3)cc2C(=O)OCC)C1=O (centres undefined), the Potency was active: 16.4 µM. For COC(=O)c1c(N)sc2c1CCN(c1ncc(C(F)(F)F)cc1Cl)C2, the Potency was inconclusive [cytotoxic, single point]. In the case of CN1CCN(c2ccc(Cl)cc2NC(=O)/C=C/c2cccc(F)c2)CC1, the Potency is reported as active: 11.6 µM. In the case of Cc1cc(C)cc(OCC(=O)Nc2nc(-c3ccccn3)cs2)c1, the Potency is reported as inconclusive [cytotoxic, single point]. With COc1ccc2[nH]c3c(c2c1)CCN1C(=O)C(CC(=O)NCCC2=CCCCC2)C[C@H](C(=O)N(C(C)C)C(C)C)[C@@]31C (some centres undefined) the Potency was “inactive”.
